The target of this test is HA-tagged pVHL30 (human) (UniProt P40337). Description: co-IP; HEK293T transiently transfected with HA-pVHL30 and FLAG-CDKN1; post-nuclear supernatant (20 mM HEPES-Na pH 7.4, 150 mM NaCl, 5 mM CHAPS); anti-VHL antibody on protein A magnetic beads, 4 h at 4 °C; blot with anti-Flag.

The chains behind the UniProt entries cited, without tags or fusion partners.
UniProt P40337: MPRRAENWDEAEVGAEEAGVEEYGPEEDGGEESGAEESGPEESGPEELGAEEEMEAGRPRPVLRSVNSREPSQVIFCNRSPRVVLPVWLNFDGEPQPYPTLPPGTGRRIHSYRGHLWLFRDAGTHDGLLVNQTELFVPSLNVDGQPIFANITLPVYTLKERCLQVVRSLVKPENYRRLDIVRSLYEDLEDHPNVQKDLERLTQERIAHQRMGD

These are yes or no findings as the source states them, for the method shown. In cells and extracts the contact can be indirect. Some entries that bind do so weakly or less than the wild type. Tags and fused reporters may be left off the sequences shown.

B1: Flag-tagged p57 (CDKN1C) (protein, UniProt P49918 1-316)
chain: MSDASLRSTSTMERLVARGTFPVLVRTSACRSLFGPVDHEELSRELQARLAELNAEDQNRWDYDFQQDMPLRGPGRLQWTEVDSDSVPAFYRETVQVGRCRLLLAPRPVAVAVAVSPPLEPAAESLDGLEEAPEQLPSVPVPAPASTPPPVPVLAPAPAPAPAPVAAPVAAPVAVAVLAPAPAPAPAPAPAPAPVAAPAPAPAPAPAPAPAPAPAPDAAPQESAEQGANQGQRGQEPLADQLHSGISGRPAAGTAAASANGAAIKKLSGPLISDFFAKRKRSAPEKSSGDVPAPCPSPSAAPGVGSVEQTPRKRLR
On to B1, for which the binding result is “binds”.

For the origin of these results see paper PMC5397843.
